In US20260216242A1, “ALPP-SPECIFIC VARIANT ANTIGEN BINDING MOLECULES” (ALMAC DISCOVERY LIMITED, priority 2022, published 2026):

How the values were obtained:
[1] = target: ALPP/ALPPL2 on ALPP/ALPPL2 positive cancer cells; assay: cell-based or functional assay
[2] = target: ALPP/ALPPL2 on ALPP/ALPPL2 positive cancer cells (MKN1, NCI-H1651, NCI-N87, HPAC); assay: cell-based or functional assay

B1: E06-hFc (S239C) [G4S]3 conjugated to MC-vc-PAB-MMAE (Fc fusion)
chain: QVHLVESGGGLVQAGGSLRLSCAASRRSFSEYAMGWFRQAPGKEREFVAAIGWSGVIEYADSVKGRFTISRDNAKDTVYLQMNSLKPEDTAVYYCAAGLGIRVVSQTPAYWGQGTQVTVSSGGGGSGGGGSGGGGS[human IgG1 Fc with changes not spelt out]
modifications: here or on the partner: MC-vc-PAB-MMAE on Cys 239 (S239C, EU numbering); DAR 1.87
IC50 @ 96 h (nM), cell-killing of NCI-H1651 cells (Cell Titre Glo) [1]: > 1000 nM

B2: E10-hFc (S239C) [G4S]3 conjugated to MC-vc-PAB-MMAE (Fc fusion)
chain: QVQLVESGGGLVQAGGSLRLSCAVSGRALSDYNIGWFRQAPGKEREFVARKTWDGSSTRYDDSVKGRFTVSIEDAKNTAYLQMSSLKTEDTAVYYCAAGRYSRARGWEYDYWGQGTQVTVSSGGGGSGGGGSGGGGS[human IgG1 Fc with changes not spelt out]
modifications: here or on the partner: MC-vc-PAB-MMAE on Cys 239 (S239C, EU numbering); DAR 1.94
IC50 @ 96 h (nM), cell-killing of NCI-H1651 cells (Cell Titre Glo) [1]: 154 nM

B3: F05-hFc (S239C) [G4S]3 conjugated to MC-vc-PAB-MMAE (Fc fusion)
chain: QVQLVESGGGLVQAGGSLRLSCAASGRAFGDYNIGWFRQAPGKEREFVARRTWDGSSTRYDDSVKGRFTVSIDNAKNTAYLQMNSLKTEDTAVYYCAAGRYSRVRGWEYDYWGQGTQVTVSSGGGGSGGGGSGGGGS[human IgG1 Fc with changes not spelt out]
modifications: here or on the partner: MC-vc-PAB-MMAE on Cys 239 (S239C, EU numbering); DAR 1.87
IC50 @ 96 h (nM), cell-killing of NCI-H1651 cells (Cell Titre Glo) [1]: 110 nM

B4: D10-hFc (S239C) [G4S]3 conjugated to MC-vc-PAB-MMAE (Fc fusion)
chain: QVQLVESGGGLVQPGGSLRLSCAASGSIFSVNTMGWYRQAPGKQRDLVAVATSGGTIHYADSVKGRFTISRDNAKNTVYLQMNSLKPEDTAVYYCNLVVPYGMIAGDHDYWGQGTKVTVSSGGGGSGGGGSGGGGS[human IgG1 Fc with changes not spelt out]
modifications: here or on the partner: MC-vc-PAB-MMAE on Cys 239 (S239C, EU numbering); DAR 2.0
IC50 @ 96 h (nM), cell-killing of NCI-H1651 cells (Cell Titre Glo) [1]: 50.2 nM

B5: A06 E10-hFc (S239C F405L/K409R) conjugated to MC-vc-PAB-MMAE (Fc fusion, DAR 2)
chain 1: QVHLVESGGGLVQAGGSLRLSCAASGRTFLSMGWFRQAPGKEREFVAAISWTGGSTGYADSVKGRFTISRESDKETMYLQMNSLKPEDTAVYYCAARGDVYYGGDDATRYKYWGQGTQVTVSSGGGGSGGGGSGGGGS[human IgG1 Fc with changes not spelt out]
chain 2: QVQLVESGGGLVQAGGSLRLSCAVSGRALSDYNIGWFRQAPGKEREFVARKTWDGSSTRYDDSVKGRFTVSIEDAKNTAYLQMSSLKTEDTAVYYCAAGRYSRARGWEYDYWGQGTQVTVSSGGGGSGGGGSGGGGS[human IgG1 Fc with changes not spelt out]
modifications: here or on the partner: MC-vc-PAB-MMAE on Cys 239 (S239C, EU numbering)
IC50 @ 96 h (nM), cell-killing of NCI-H1651 cells (Cell Titre Glo) [1]: 3 nM

B6: A06 E06-hFc (S239C F405L/K409R) conjugated to MC-vc-PAB-MMAE (Fc fusion, DAR 2)
chain 1: QVHLVESGGGLVQAGGSLRLSCAASGRTFLSMGWFRQAPGKEREFVAAISWTGGSTGYADSVKGRFTISRESDKETMYLQMNSLKPEDTAVYYCAARGDVYYGGDDATRYKYWGQGTQVTVSSGGGGSGGGGSGGGGS[human IgG1 Fc with changes not spelt out]
chain 2: QVHLVESGGGLVQAGGSLRLSCAASRRSFSEYAMGWFRQAPGKEREFVAAIGWSGVIEYADSVKGRFTISRDNAKDTVYLQMNSLKPEDTAVYYCAAGLGIRVVSQTPAYWGQGTQVTVSSGGGGSGGGGSGGGGS[human IgG1 Fc with changes not spelt out]
modifications: here or on the partner: MC-vc-PAB-MMAE on Cys 239 (S239C, EU numbering)
IC50 @ 96 h (nM), cell-killing of NCI-H1651 cells (Cell Titre Glo) [1]: 2.6 nM

B7: D10 F05-hFc (S239C F405L/K409R) conjugated to MC-vc-PAB-MMAE (Fc fusion, DAR 2)
chain 1: QVQLVESGGGLVQPGGSLRLSCAASGSIFSVNTMGWYRQAPGKQRDLVAVATSGGTIHYADSVKGRFTISRDNAKNTVYLQMNSLKPEDTAVYYCNLVVPYGMIAGDHDYWGQGTKVTVSSGGGGSGGGGSGGGGS[human IgG1 Fc with changes not spelt out]
chain 2: QVQLVESGGGLVQAGGSLRLSCAASGRAFGDYNIGWFRQAPGKEREFVARRTWDGSSTRYDDSVKGRFTVSIDNAKNTAYLQMNSLKTEDTAVYYCAAGRYSRVRGWEYDYWGQGTQVTVSSGGGGSGGGGSGGGGS[human IgG1 Fc with changes not spelt out]
modifications: here or on the partner: MC-vc-PAB-MMAE on Cys 239 (S239C, EU numbering)
IC50 @ 96 h (nM), cell-killing of NCI-H1651 cells (Cell Titre Glo) [1]: 3 nM

B8: A06 F05-hFc (S239C F405L/K409R) conjugated to MC-vc-PAB-MMAE (Fc fusion, DAR 2)
chain 1: QVHLVESGGGLVQAGGSLRLSCAASGRTFLSMGWFRQAPGKEREFVAAISWTGGSTGYADSVKGRFTISRESDKETMYLQMNSLKPEDTAVYYCAARGDVYYGGDDATRYKYWGQGTQVTVSSGGGGSGGGGSGGGGS[human IgG1 Fc with changes not spelt out]
chain 2: QVQLVESGGGLVQAGGSLRLSCAASGRAFGDYNIGWFRQAPGKEREFVARRTWDGSSTRYDDSVKGRFTVSIDNAKNTAYLQMNSLKTEDTAVYYCAAGRYSRVRGWEYDYWGQGTQVTVSSGGGGSGGGGSGGGGS[human IgG1 Fc with changes not spelt out]
modifications: here or on the partner: MC-vc-PAB-MMAE on Cys 239 (S239C, EU numbering)
IC50 @ 96 h (nM), cell-killing of NCI-H1651 cells (Cell Titre Glo) [1]: 4.6 nM

B9: D10 E10-hFc (S239C F405L/K409R) conjugated to MC-vc-PAB-MMAE (Fc fusion, DAR 2)
chain 1: QVQLVESGGGLVQPGGSLRLSCAASGSIFSVNTMGWYRQAPGKQRDLVAVATSGGTIHYADSVKGRFTISRDNAKNTVYLQMNSLKPEDTAVYYCNLVVPYGMIAGDHDYWGQGTKVTVSSGGGGSGGGGSGGGGS[human IgG1 Fc with changes not spelt out]
chain 2: QVQLVESGGGLVQAGGSLRLSCAVSGRALSDYNIGWFRQAPGKEREFVARKTWDGSSTRYDDSVKGRFTVSIEDAKNTAYLQMSSLKTEDTAVYYCAAGRYSRARGWEYDYWGQGTQVTVSSGGGGSGGGGSGGGGS[human IgG1 Fc with changes not spelt out]
modifications: here or on the partner: MC-vc-PAB-MMAE on Cys 239 (S239C, EU numbering)
IC50 @ 96 h (nM), cell-killing of NCI-H1651 cells (Cell Titre Glo) [1]: 3.9 nM

B10: D10 E06-hFc (S239C F405L/K409R) conjugated to MC-vc-PAB-MMAE (Fc fusion, DAR 2)
chain 1: QVQLVESGGGLVQPGGSLRLSCAASGSIFSVNTMGWYRQAPGKQRDLVAVATSGGTIHYADSVKGRFTISRDNAKNTVYLQMNSLKPEDTAVYYCNLVVPYGMIAGDHDYWGQGTKVTVSSGGGGSGGGGSGGGGS[human IgG1 Fc with changes not spelt out]
chain 2: QVHLVESGGGLVQAGGSLRLSCAASRRSFSEYAMGWFRQAPGKEREFVAAIGWSGVIEYADSVKGRFTISRDNAKDTVYLQMNSLKPEDTAVYYCAAGLGIRVVSQTPAYWGQGTQVTVSSGGGGSGGGGSGGGGS[human IgG1 Fc with changes not spelt out]
modifications: here or on the partner: MC-vc-PAB-MMAE on Cys 239 (S239C, EU numbering)
IC50 @ 96 h (nM), cell-killing of NCI-H1651 cells (Cell Titre Glo) [1]: 1.2 nM

B11: D10 A06-hFc (S239C F405L/K409R) conjugated to MC-vc-PAB-MMAE (Fc fusion, DAR 2.8)
chain 1: QVQLVESGGGLVQPGGSLRLSCAASGSIFSVNTMGWYRQAPGKQRDLVAVATSGGTIHYADSVKGRFTISRDNAKNTVYLQMNSLKPEDTAVYYCNLVVPYGMIAGDHDYWGQGTKVTVSSGGGGSGGGGSGGGGS[human IgG1 Fc with changes not spelt out]
chain 2: QVHLVESGGGLVQAGGSLRLSCAASGRTFLSMGWFRQAPGKEREFVAAISWTGGSTGYADSVKGRFTISRESDKETMYLQMNSLKPEDTAVYYCAARGDVYYGGDDATRYKYWGQGTQVTVSSGGGGSGGGGSGGGGS[human IgG1 Fc with changes not spelt out]
modifications: here or on the partner: MC-vc-PAB-MMAE on Cys 239 (S239C, EU numbering)
IC50 @ 96 h (nM), cell-killing of NCI-H1651 cells (Cell Titre Glo) [1]: 10.4 nM

B12: D10 F05-hFc (S239C T366Y/Y407T) [G4S]3 conjugated to MC-vc-PAB-MMAE (Fc fusion)
chain 1: QVQLVESGGGLVQPGGSLRLSCAASGSIFSVNTMGWYRQAPGKQRDLVAVATSGGTIHYADSVKGRFTISRDNAKNTVYLQMNSLKPEDTAVYYCNLVVPYGMIAGDHDYWGQGTKVTVSSGGGGSGGGGSGGGGS[human IgG1 Fc with C220S S239C T366Y (EU numbers) not spelt out]
chain 2: QVQLVESGGGLVQAGGSLRLSCAASGRAFGDYNIGWFRQAPGKEREFVARRTWDGSSTRYDDSVKGRFTVSIDNAKNTAYLQMNSLKTEDTAVYYCAAGRYSRVRGWEYDYWGQGTQVTVSSGGGGSGGGGSGGGGS[human IgG1 Fc with C220S S239C Y407T (EU numbers) not spelt out]
modifications: here or on the partner: MC-vc-PAB-MMAE on Cys 239 (S239C, EU numbering)
% viability remaining, MDA-MB-468 cells [1]: 32%
% viability remaining, MKN-1 cells [1]: 26%
% viability remaining, NCI-H1651 cells [1]: 31%
IC50 at 96 h (nM), cell-killing of MDA-MB-468 cells (Cell Titre Glo) [1]: 237 nM
IC50 at 96 h (nM), cell-killing of MKN-1 cells (Cell Titre Glo) [1]: 4.5 nM
IC50 at 96 h (nM), cell-killing of NCI-H1651 cells (Cell Titre Glo) [1]: 35.7 nM
IC50 at 96 h (nM), cell-killing of NCI-N87 cells (Cell Titre Glo) [1]: > 1000 nM

B13: E10-hFc (S239C)-MA-PEG4-vc-PAB-EDA-PNU159682 (Fc fusion)
chain: QVQLVESGGGLVQAGGSLRLSCAVSGRALSDYNIGWFRQAPGKEREFVARKTWDGSSTRYDDSVKGRFTVSIEDAKNTAYLQMSSLKTEDTAVYYCAAGRYSRARGWEYDYWGQGTQVTVSSGGGGSGGGGSGGGGS[human IgG1 Fc with changes not spelt out]
modifications: here or on the partner: MA-PEG4-vc-PAB-EDA-PNU159682 on Cys 239 (S239C, EU numbering); DAR 1.98
% viability remaining, HPAC cells [2]: 0%
% viability remaining, MKN1 cells [2]: 10.5%
% viability remaining, NCI-H1651 cells [2]: 21.1%
% viability remaining, NCI-N87 cells [2]: 0%
cell killing IC50 @ 96 h, HPAC cells [2]: 8 nM
cell killing IC50 @ 96 h, MKN1 cells [2]: 0.23 nM
cell killing IC50 @ 96 h, NCI-H1651 cells [2]: 0.38 nM
cell killing IC50 @ 96 h, NCI-N87 cells [2]: 9.3 nM

B14: F05-hFc (S239C)-MA-PEG4-vc-PAB-EDA-PNU159682 (Fc fusion)
chain: QVQLVESGGGLVQAGGSLRLSCAASGRAFGDYNIGWFRQAPGKEREFVARRTWDGSSTRYDDSVKGRFTVSIDNAKNTAYLQMNSLKTEDTAVYYCAAGRYSRVRGWEYDYWGQGTQVTVSSGGGGSGGGGSGGGGS[human IgG1 Fc with changes not spelt out]
modifications: here or on the partner: MA-PEG4-vc-PAB-EDA-PNU159682 on Cys 239 (S239C, EU numbering); DAR 1.94
% viability remaining, HPAC cells [2]: 0%
% viability remaining, MKN1 cells [2]: 8.5%
% viability remaining, NCI-H1651 cells [2]: 19.5%
% viability remaining, NCI-N87 cells [2]: 0%
cell killing IC50 @ 96 h, HPAC cells [2]: 94.6 nM
cell killing IC50 @ 96 h, MKN1 cells [2]: 0.24 nM
cell killing IC50 @ 96 h, NCI-H1651 cells [2]: 0.2 nM
cell killing IC50 @ 96 h, NCI-N87 cells [2]: 10.5 nM
